Sequences with one replicate were seen in a single cluster, so their values are uncertain.
Tested on: ATP
Experiment: switch fluorescence ratio, 500 uM ATP over buffer (Cy3 cluster intensity, sum of 5 cycles each) (fold (ratio)); higher = stronger signal-on switching upon ATP binding; sequences stand for … in TCGTCGGCAGCGTCAGATGTGTATAAGAGACAGTTTTTTTTTTTTTTTTTTTTTTTTT…TC
Conditions: aptamer strand: ATP DNA aptamer (quencher-CACCTGGGGGAGTATTGCGGAGGAAGG + anchor), 100 nM annealed; ATP concentration: 500 uM; one replicate
In short: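 Values give the fluorescence ratio for each switch-domain sequence, averaged from per-cluster ratios of summed target-cycle to summed buffer-cycle Cy3 intensity. The Cy3-labelled switching-strand clusters sat on a modified Illumina MiSeq flow-cell, were annealed to 100 nM quencher-labelled ATP aptamer, and were imaged in selection buffer, then after 15 min with 500 uM ATP at 22 °C. Five cycles ran with NaOH stripping and re-annealing between them, and clusters outside 100-1000 RFU were excluded.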
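Also: ATP exposure 15 min at 22 °C before imaging.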

Row | Sequence | switch fluorescence ratio
1 | ATTAACAGAT | 1.03
2 | AGATTGCGCT | 1.05
3 | GCTCCTAAGC | 1.01
4 | TCTTTCTTAG | 0.993
5 | CCCATCAAAT | 1.08
6 | GGAACAAAGT | 0.991
7 | GGGGGCTAAC | 0.975
8 | ATAGCCAATC | 1.56
9 | AACCACAAGT | 1.04
10 | AGTAACGGGA | 1.01
11 | GGTGTCTGG | 1.02
12 | TCTCGTTACC | 1.07
13 | GTTGTAAGTA | 0.991
14 | GGCCGAGAGT | 0.991
15 | CCCAGGGCGC | 1.03
16 | TCCTAGGAAG | 0.962
17 | GACTGTAATG | 1.03
18 | TACCCGTTTT | 1.05
19 | CACCATAGCT | 1.01
20 | TGAGAGGCGC | 1.03
21 | TAAGTTTTG | 0.973
22 | CCAAATAAG | 1
23 | TAAAGGAGAC | 0.979

Row | Sequence | switch fluorescence ratio
24 | AGGTGTCCTG | 0.999
25 | TGGAATTGCA | 1
26 | CCTAGCGAGG | 1.09
27 | CTTCGTGCGG | 1.01
28 | TTAATTCGTA | 1.01
29 | TCCAGTACAA | 1.05
30 | CCCCTGAATA | 1.08
31 | CGCCTTTTGC | 1.02
32 | TATTTGTAGA | 1.04
33 | CATCGTACGG | 1.01
34 | ACGAAATACC | 2.53
35 | TCGAAAGGAG | 0.995
36 | TTAACTGATT | 0.983
37 | GAATCCACAG | 1.05
38 | TTGAATAACG | 0.942
39 | TTTTACGTAA | 1.44
40 | AAATAGCGAA | 0.983
41 | CGTCCTTGGA | 0.962
42 | TTATAGGAAT | 0.988
43 | AGAGCTTTA | 0.967
44 | CGTTATCCAG | 0.989
45 | GCCGATCCGC | 1.72
46 | CCGTATCGGA | 0.995

Row | Sequence | switch fluorescence ratio
47 | CTGTGGCGCC | 0.986
48 | GGAGTTCCGT | 1
49 | CAAATAGAGC | 1
50 | TGACCCATCG | 0.998
51 | CGTCAACTGA | 1.02
52 | GGGTTAAGCG | 0.98
53 | GGGTTACACT | 1.05
54 | TTTTATCG | 1.04
55 | CTTGCGTCCA | 1.05
56 | TGTCGAAACT | 1.02
57 | AACGAATTCG | 0.974
58 | TCCAACGAAT | 1.28
59 | TACATCAGCT | 1
60 | CGGGTGTTTG | 0.963
61 | ACCTGCAACA | 1.4
62 | GGCCGAATCC | 0.977
63 | CCAGTGTCGA | 1.02
64 | TACCGGTTGG | 0.985
65 | TCGAACAGAC | 1.22
66 | AGGCCCCAGA | 0.97
67 | CAGCGTGTG | 1.05
68 | ATCGCCGGAC | 0.978
69 | TCAATCATTG | 1.02

Row | Sequence | switch fluorescence ratio
70 | AAGAAGGTGC | 1.41
71 | TAGAGACTAT | 0.969
72 | AATGACCAGG | 0.96
73 | GTGAACCATA | 1.01
74 | TTAGTTAGGG | 1.03
75 | TTCGAACC | 1.03
76 | AGAGTAGCGC | 1.14
77 | AGGTGAGGCT | 1.02
78 | GGAATCGTCT | 1.14
79 | TTGAGGTCT | 1.12
80 | TCGAATAAGT | 0.951
81 | CTGAATAAGC | 1.03
82 | TTAGGAATC | 1.21
83 | AATGCTTAAA | 1.02
84 | CGTATTGTGG | 0.933
85 | GGTATAGCCA | 0.988
86 | ATAAGCGA | 1.07
87 | GGGGTTTAT | 0.976
88 | TGAGGTGTTA | 0.992
89 | GGAGCAGAGG | 1.17
90 | ATGGAAATTT | 1.06
91 | ACCTGGGCTT | 1.02
92 | TACATGGAGC | 0.951

Row | Sequence | switch fluorescence ratio
93 | AAGCTCTTGG | 1.01
94 | CCTATTTACA | 1.02
95 | CAACCTTAAC | 1.34
96 | CTGCATCGTG | 1.01
97 | GCGTGTATAC | 1.1
98 | TTAGCATAGG | 1.02
99 | AAGGTCTGCC | 0.989
100 | CACGACAGAA | 1.12
101 | AGCTGGTCAT | 0.981
102 | GCGTTTTGAT | 0.978
103 | AAGGCTCGAG | 1.01
104 | GTGCATGGAG | 0.962
105 | GATTGCAAAA | 0.931
106 | TCAAGCTCAG | 1.02
107 | TGTATTTTGC | 0.936
108 | AGGCGCTGTG | 0.988
109 | ACACAGGGAT | 0.981
110 | TGGTCCCTGG | 1.04
111 | ATCCTTAGAC | 0.996
112 | ATAGCAACG | 1.05
113 | TTAAGGTTTG | 0.943
114 | GTCTTTCATT | 1.01
115 | TTTATGGCAC | 1.07

Row | Sequence | switch fluorescence ratio
116 | GTTAATATGT | 0.955
117 | TGGTGAGCTA | 0.942
118 | ATGAAATTCC | 2.11
119 | GTCCGCATTT | 5.07
120 | CGGGCGTG | 0.976
121 | CACTGTAGGC | 1.18
122 | GGTCACCCTT | 1
123 | CCATCGTATA | 1.28
124 | GTATTAACC | 0.99
125 | GGGTTTCCGC | 1.08
126 | ATTGGCCGTA | 0.987
127 | CACTTAGTAT | 1.01
128 | ATAAATTCAG | 1.03
129 | CCCGCGTGGT | 0.975
130 | GTGGAGCTAC | 5.13
131 | TTTAGAGGCG | 1.02
132 | GATCCTATTA | 1
133 | ATTGCAGGG | 0.936
134 | GATTTTTGAA | 0.973
135 | TTAGTCTAGC | 1.01
136 | TAAACGGACG | 1.08
137 | CCTTTAGAA | 0.999
138 | AACTGCCACA | 1.22

Row | Sequence | switch fluorescence ratio
139 | TGGTTGCCGT | 1.04
140 | TTAGGACCAG | 1.01
141 | TTATTATAGC | 1.03
142 | TTAAATCGCT | 1.04
143 | AAGTAGAGCC | 0.935
144 | GCATGAGACA | 1.01
145 | AGGTATTCCG | 0.883
146 | GCACTATTGC | 1.03
147 | TGGGCAGTGT | 1.04
148 | GATAGTTGAA | 0.965
149 | GCATCGGCTC | 1.03
150 | GGCACGGACC | 1.3
151 | GATTTTGAGA | 0.939
152 | TGAACGTAGA | 0.994
153 | CGCGTGCGAA | 1.04
154 | TGTTTCCTTG | 1.01
155 | GACACCCGGG | 1.01
156 | CAATCTCCAT | 1.02
157 | GATACTACGA | 1.05

— the supplement of paper PMC10126150
